Blank lines part the entries; values can stand above or below the binder they belong to.
Biological target: T1, CD20 on CD20 positive lymphoma cells (Daudi, Raji) (human) (UniProt P11836)
T1 sequence: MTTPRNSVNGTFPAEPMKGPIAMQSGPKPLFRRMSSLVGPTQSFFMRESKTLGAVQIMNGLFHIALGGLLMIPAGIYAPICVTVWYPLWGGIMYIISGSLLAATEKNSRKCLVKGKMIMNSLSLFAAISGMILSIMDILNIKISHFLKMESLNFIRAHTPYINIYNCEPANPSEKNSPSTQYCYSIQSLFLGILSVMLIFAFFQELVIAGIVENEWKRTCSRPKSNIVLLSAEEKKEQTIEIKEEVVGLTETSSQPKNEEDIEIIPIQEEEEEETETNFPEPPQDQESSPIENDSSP
Test: cell-based or functional assay

IC50 [nM], membrane integrity 4 h, Daudi (CD20 positive): 2560 nM
B1: scFv-Fc-CH3-Phor18 (E. coli, single chain) (Fc fusion)
chain: DIQMTQSPSSLSASVGDRVTITCRASSSVSYIHWYQQKPGKAPKLLIYATSNLASGVPSRFSGSRSGTDFTLTISSLQPEDFATYYCQQWTSNPPTFGQGTKVEIKGGGGSEVQLVESGGGLVQPGGSLRLSCAASGYTFTSYNMHWVRQAPGKGLEWVAAIYPGNGDTSYNQKFKGRFTISADTSKNTAYLQMNSLRAEDTAVYYCSRSTYYGGDWYFDVWGQGTLVTVSSV[human IgG1 Fc not listed]GSKFAKFAKKFAKFAKKFAK
IC50 [nM], cell viability 24 h, Daudi (CD20 positive): 423 nM

IC50 [nM], membrane integrity 4 h, Daudi (CD20 positive): 277 nM
B2: Phor18-VL-scFv-Fc (E. coli, single chain) (Fc fusion)
chain: KFAKFAKKFAKFAKKFAKGSDIQMTQSPSSLSASVGDRVTITCRASSSVSYIHWYQQKPGKAPKLLIYATSNLASGVPSRFSGSRSGTDFTLTISSLQPEDFATYYCQQWTSNPPTFGQGTKVEIKGGGGSEVQLVESGGGLVQPGGSLRLSCAASGYTFTSYNMHWVRQAPGKGLEWVAAIYPGNGDTSYNQKFKGRFTISADTSKNTAYLQMNSLRAEDTAVYYCSRSTYYGGDWYFDVWGQGTLVTVSSV[human IgG1 Fc not listed]
IC50 [nM], cell viability 24 h, Daudi (CD20 positive): 21.8 nM
